# About 310 (0.076%) of roughly 410,000 compounds were called active. Inconclusive results, whose numbers are uncertain, are shown with a selection of clear calls. Calls follow the shape of the dose curve; as a rule, active = well fitted curve in the direction sought with a large enough effect; inconclusive = small, poorly fitted or top-dose-only effect; inactive = flat fitted curve, though single readings scatter. Potencies beside an inconclusive call are fits to weak or partial responses and may not hold up.
# Molecular target: DNA dC->dU-editing enzyme APOBEC-3G (Homo sapiens) (UniProt Q9HC16)
# Chain of UniProt Q9HC16 (Q9HC16 whole entry, looked up): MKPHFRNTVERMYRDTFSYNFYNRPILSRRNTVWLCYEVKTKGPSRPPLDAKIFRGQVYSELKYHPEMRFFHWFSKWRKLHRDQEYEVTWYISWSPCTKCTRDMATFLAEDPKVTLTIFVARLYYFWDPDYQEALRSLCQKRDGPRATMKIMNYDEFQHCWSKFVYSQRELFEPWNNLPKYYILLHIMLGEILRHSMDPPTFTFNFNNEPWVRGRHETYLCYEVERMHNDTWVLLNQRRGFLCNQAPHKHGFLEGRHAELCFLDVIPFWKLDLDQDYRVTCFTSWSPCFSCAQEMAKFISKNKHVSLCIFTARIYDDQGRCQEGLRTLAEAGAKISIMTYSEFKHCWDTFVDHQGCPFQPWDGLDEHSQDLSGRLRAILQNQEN
# Assay: qHTS for Inhibitors of Vif-A3G Interactions: qHTS; also: nearly all actives have a fitted effect of over 60% in size;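 as to activity, negative = active: hits raise eYFP signal because A3G escapes Vif-driven loss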
# Details: HeLa A3G-eYFP + Vif (tagged APOBEC3G with the HIV-1 protein that degrades it), YFP fluorescence, overnight; series mostly up to 46.1 µM; activity, negative = active: at the top concentration
# Outline: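 HeLa cells stably expressing Vif and C-terminally eYFP-tagged A3G, seeded overnight at 37 deg C, then exposed to compound by pintool overnight at 37 deg C. Rise in yellow fluorescence (Ex 488/Em 500-530, Acumen) marks blocked Vif-driven A3G degradation.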
# % is scaled to controls: 0 for no effect and ±100 for the full control effect; potency is read from the fitted curve at half-maximal effect; tags tell the direction and shape of the fitted curve.
Structure (SMILES),Potency,"activity, negative = active"
COc1ccc(C2CC(c3cccs3)=NN2C(=O)CCl)cc1OC (stereo not drawn),"inconclusive: 35.5 µM [inhibitor, single point]",–
COc1ccccc1N1CCN(CCCNC(=O)c2nnc(Cc3c(F)cccc3Cl)o2)CC1,–,inactive: 0.126%
S=C(Nc1ccccc1)N1CCn2c1nc1ccccc12,"inconclusive: 0.562 µM [inhibitor, full curve, poor fit]",–
COc1ccc(-c2nc3cnccn3c2NCc2ccccc2)cc1SC1CCCCC1,"inconclusive: 10 µM [inhibitor, partial curve]",–
CCCCCc1cc(=O)oc2c(C(CCN3CCCC(C)C3)c3cc(OC)c(OC)c(OC)c3)c(OC)cc(OC)c12 (stereo not drawn),"inconclusive: 35.5 µM [inhibitor, single point]",–
CCOC(=O)Cn1c(COc2ccccc2OC)[n+](C)c2ccccc21,–,inactive: -1.1%
COc1ccc(CN2C(=O)C(C)Nc3ncnc(N4CCc5ccccc5C4)c32)cc1 (stereo not drawn),"inconclusive: 1.41 µM [inhibitor, full curve, poor fit]",–
O=C(Cn1cncn1)N/N=C/c1ccc(Cl)cc1,–,inactive: 0.142%
Cc1ccc(O)c(-c2cc(-c3ccccc3[N+](=O)[O-])[nH]n2)c1,"inconclusive: 15.8 µM [inhibitor, single point]",–
O=[N+]([O-])CC(c1ccc(F)cc1)c1c[nH]c2ccccc12 (stereo not drawn),"inconclusive: 2.82 µM [inhibitor, partial curve, poor fit]",–
O=C(c1ccc(Cl)cc1)c1cc([N+](=O)[O-])ccc1N1CCOCC1,"inconclusive: 0.891 µM [inhibitor, full curve]",–
CCC(NC(=O)Nc1cc(Cl)ccc1OC)c1c(-n2cccc2)sc2c1CCN(C)C2 (stereo not drawn),"inconclusive: 35.5 µM [inhibitor, single point]",–
CC(c1ccccc1C(=O)O)c1cc(F)cc2ccccc12 (stereo not drawn),"inconclusive: 22.4 µM [inhibitor, single point]",–
CCCN1CCC(=O)N(CCSc2ccc(OC)cc2)CC1,"inconclusive: 7.94 µM [inhibitor, partial curve, poor fit]",–
COc1cc2c(cc1OC)C(C)N(C(=O)c1cccs1)CC2 (stereo not drawn),"inconclusive: 17.8 µM [inhibitor, single point]",–
CCCCc1cn([C@@H](CCCCN)C(=O)N2CCNCC2)nn1,–,inactive: -3.06%
CCC(=O)NC(c1ccc(OC)cc1)c1c(O)ccc2ccccc12 (stereo not drawn),"inconclusive: 10 µM [inhibitor, partial curve]",–
O=S(=O)(c1ccc(NC(=S)N/N=C/c2ccc(O)c(O)c2)cc1)N1CCOCC1,–,inactive: -4.5%
COC(=O)c1sc2cccc(F)c2c1S(=O)(=O)Nc1ccc(C)cc1Cl,–,inactive: -4.17%
N/C(Cc1ccc([N+](=O)[O-])cc1)=N\OC(=O)c1ccc2ccccc2c1,"inconclusive: 35.5 µM [inhibitor, partial curve, poor fit]",–
O=S(=O)(Nc1cc(Sc2ncn[nH]2)c(O)c2ccccc12)c1ccccc1,"inconclusive: 10 µM [inhibitor, partial curve]",–
O=c1[nH]c(/C(Cl)=C/c2cc(Cl)ccc2O)nc2cc(Cl)ccc12,"inconclusive: 10 µM [inhibitor, partial curve, poor fit]",–
O=C(C[n+]1cccc2cc(Cl)ccc21)c1ccc(Br)cc1,"inconclusive: 31.6 µM [inhibitor, single point]",–

Structure (SMILES),Potency,"activity, negative = active"
Cn1nc([N+](=O)[O-])nc1Oc1ccccc1F,–,inactive: -1.51%
CC(Sc1nc(-c2ccccc2)cc(C(F)(F)F)n1)C(=O)N1CCCC1 (stereo not drawn),–,inactive: 3.02%
CCCCn1c(NC(=O)c2ccco2)c(S(=O)(=O)c2ccc(C)cc2)c2nc3ccccc3nc21,"inconclusive: 28.2 µM [inhibitor, single point]",–
Fc1ccccc1COc1ccc2ccccc2c1CNc1nn[nH]n1,"inconclusive: 12.6 µM [inhibitor, single point]",–
CC(OC(=O)/C=C/c1cccs1)C(=O)Nc1ccc(C(N)=O)cc1 (stereo not drawn),"inconclusive: 28.2 µM [inhibitor, single point]",–
COC(=O)c1ccc2c(c1)C(C)(C)C(/C=C/c1ccc(O)cc1)=[N+]2C,"inconclusive: 3.55 µM [inhibitor, full curve, poor fit]",–
O=C(CCn1cnnn1)Nc1cc(C(F)(F)F)cc(C(F)(F)F)c1,"inconclusive: 10 µM [inhibitor, partial curve, poor fit]",–
Cc1noc(C)c1C(=O)OCC(=O)Nc1c(F)cccc1F,–,inactive: -4.17%
COc1ccccc1N1C(=O)C=C(Sc2nc(C)cc(C)n2)C1=O,–,inactive: 3.28%
Cc1cc(C)n2nc(/C(C#N)=C/c3ccccn3)c(C#N)c2n1,–,inactive: -18%
CN1C(=O)/C(=C\c2ccc(N(C)C)cc2)OC1=S,"inconclusive: 2.82 µM [inhibitor, full curve, poor fit]",–
COc1ccc(/C=C2\SC(=O)N(CCNC(=O)C3=COCCO3)C2=O)cc1,"inconclusive: 1.26 µM [inhibitor, full curve, poor fit]",–
COc1ccc(Cn2c(=O)c3[nH]cnc3n(-c3ccccc3C)c2=O)cc1,"inconclusive: 12.6 µM [inhibitor, partial curve, poor fit]",–
O=C(Nc1ccc(Cl)c(Cl)c1)Nc1ccc(N2CCCC2)c(S(=O)(=O)Nc2ccccc2Cl)c1,–,inactive: -8.19%
Cc1ccc(C(=O)/C=C/C(=O)O)cc1,"inconclusive: 28.2 µM [inhibitor, single point]",–
COc1ccc(CN2CCN(CCCCOc3ccc(Cl)cc3)CC2)c(OC)c1OC,–,inactive: -1.67%
CC(=O)N1N=C(c2ccc(NS(=O)(=O)c3ccccc3)cc2)CC1c1ccco1 (stereo not drawn),"inconclusive: 1.58 µM [inhibitor, full curve, poor fit]",–
COc1ccc(C(NC(=O)C(C)C)c2c(O)ccc3ccccc23)cc1 (stereo not drawn),"inconclusive: 17.8 µM [inhibitor, single point]",–
COC(=O)c1sc(N2C(=O)c3oc4ccccc4c(=O)c3C2c2ccc(O)cc2)nc1C (stereo not drawn),–,inactive: 2.17%
CCOC(=O)CNC(=O)C1(/C=C/c2ccccc2)CC(=O)N1c1ccc(C)cc1 (stereo not drawn),"inconclusive: 15.8 µM [inhibitor, single point]",–
O=C(O)COc1ccc2nsnc2c1Cl,–,inactive: -0.438%
CCCNC(=O)C(=O)Nc1ccc2c(c1)N(S(=O)(=O)c1cccs1)CCC2,"inconclusive: 7.08 µM [inhibitor, partial curve]",–
C/C(=N/NC(N)=S)c1cc2ccc(O)cc2oc1=O,–,inactive: -2.99%

Structure (SMILES),Potency,"activity, negative = active"
C=CCOc1ccc(C2C(C#N)=C(N)N(Nc3ccccc3)C3=C2C(=O)CC(C)(C)C3)cc1OC (stereo not drawn),"inconclusive: 12.6 µM [inhibitor, single point]",–
Fc1ccc(Nc2nc(SCc3ccccc3F)nc3ccccc23)cc1,"inconclusive: 20 µM [inhibitor, single point]",–
COc1cc(C2c3cc4c(cc3CC3COC(=O)N32)OCO4)cc(OC)c1OC (stereo not drawn),"inconclusive: 0.631 µM [inhibitor, full curve, poor fit]",–
Nc1c(C(=O)O)sc2nc(-c3ccccc3)cc(-c3ccc(F)cc3)c12,"inconclusive: 10 µM [inhibitor, partial curve, poor fit]",–
CCOc1cc(CNc2ccc(N3CCCC3)cc2)cc(Cl)c1OC,"inconclusive: 20 µM [inhibitor, single point]",–
COC(=O)c1cc(NS(=O)(=O)c2ccc(N3CCCCC3)c([N+](=O)[O-])c2)cc(C(=O)OC)c1,–,inactive: -3.09%
CCOc1ccc(NC(=O)Cn2cc(S(=O)(=O)NC)c(S(=O)(=O)NC)c2)cc1,–,inactive: 2.32%
COc1cc(-c2cc(OC)c(O)c(OC)c2)cc(OC)c1O,"inconclusive: 31.6 µM [inhibitor, single point]",–
OC1(c2cccc(C(F)(F)F)c2)CCN(Cc2nnnn2CCc2ccccc2)CC1,–,inactive: 4.72%
CCOc1ccc(NC(=O)CN(C)c2ccc(S(=O)(=O)N(C(C)C)C(C)C)cn2)cc1OCC,"inconclusive: 22.4 µM [inhibitor, single point]",–
Cc1ccc2nc(-c3ccc(SCC(=O)Nc4nc(C)cs4)nc3)[nH]c2c1,"inconclusive: 25.1 µM [inhibitor, single point]",–
N#Cc1c(N)n(-c2cccc(C(=O)O)c2)c2nc3ccccc3nc12,"inconclusive: 12.6 µM [inhibitor, single point]",–
Cc1cccc(N2CCN(C(=O)c3cccc(N4CCCC4=O)c3)C(C)C2)c1 (stereo not drawn),"inconclusive: 2 µM [inhibitor, full curve]",–
CCc1ccc(/C=N/NC(=O)c2cc(-c3cccc([N+](=O)[O-])c3)n[nH]2)cc1,"inconclusive: 2.82 µM [inhibitor, full curve, poor fit]",–
COc1ccc(/C(C)=N/NC(=O)CNC(=O)c2cccnc2)cc1,–,inactive: -7.69%
CCc1ccc(NC(=O)CN(c2ccc(C)cc2)S(=O)(=O)c2cccs2)cc1,–,inactive: 1.41%
NC1=NC(=O)/C(=C/c2cn(Cc3ccccc3)c3ccccc23)S1,"inconclusive: 25.1 µM [inhibitor, single point]",–
CN(C)CC/C=C1/c2ccccc2Sc2c(O)cc(Cl)cc21,"inconclusive: 31.6 µM [inhibitor, single point]",–
C/C(=N\NC(=O)CC1N=C(Cc2ccccc2)NNC1=O)c1ccc(Br)cc1 (stereo not drawn),"inconclusive: 15.8 µM [inhibitor, single point]",–
CC1=Nc2cc(C(=O)NCCCOC(C)C)ccc2Sc2ccccc21,"inconclusive: 3.16 µM [inhibitor, partial curve, poor fit]",–
Cc1ccccc1NC(=O)Cc1nc(COC(=O)c2ncc(Cl)c(Cl)c2Cl)cs1,–,inactive: -0.796%
CCS(=O)(=O)c1nn2c(N)c(/C=C3/C=CC(=O)C(OC)=C3)c(=O)nc2s1,–,inactive: -8.29%

# Source: PubChem BioAssay AID602310 (National Center for Advancing Translational Sciences (NCATS), 2012)
